From PMC6212790 come the findings set out here.

The other results are listed elsewhere or left out. At the low end of the ranking, values are background and their order means little.

The assay has as its target T1, GST-Rok-C97-191 (UniProt O34857).
T1 sequence: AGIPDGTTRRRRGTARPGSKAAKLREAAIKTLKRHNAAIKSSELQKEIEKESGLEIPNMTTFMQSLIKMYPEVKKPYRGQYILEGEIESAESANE
The experiment in a line: protein binding microarray.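 Note: rank score from −0.5 (least bound) to 0.5 (best bound).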 Particulars: Rok is a gene silencer of Bacillus subtilis; high values mean tight binding; most listed sequences are background and not binding sites; double strand, one strand shown.
As to AATTCGCT, the binding signal was -0.0172 E-score.
The same measure for TCCGCTCA: -0.118 E-score; for ATCCCCAG: -0.295 E-score.
Next, CTTTGCGC: -0.101 E-score; GCGCTTAA: 0.0136 E-score; CAAGACAA: -0.0945 E-score.
Regarding TAGAATCA, the binding signal amounted to 0.222 E-score.
Next, CTGGGATC: -0.14 E-score; CACAGGTG: -0.163 E-score; ACTCCAAG: -0.201 E-score.
Next, GCAGGGGA: -0.184 E-score.
Next, TAGGCATA: 0.0965 E-score; GTTCACCA: -0.0973 E-score.
For TCACGCCA, the binding signal is -0.0789 E-score.
With GAGAGGGA, the binding signal is -0.219 E-score.
Take AGTTAAGG: the binding signal was determined as 0.0755 E-score.
Next, AATGTTCA: 0.254 E-score; GCTCCCAA: -0.262 E-score; CCACTGGC: -0.234 E-score.
The same measure for TCTTTCCA: -0.0693 E-score; for CTCCACCA: -0.0804 E-score.
Next, AGCCGCAA: -0.144 E-score; GACGGAAA: 0.0891 E-score; CTCGGCTC: -0.176 E-score.
AATCACCT displayed a binding signal of 0.0509 E-score.
Next, AGTCGTTG: -0.237 E-score; GAACACGC: -0.0296 E-score.
Turning to GGGAGTAA, the binding signal was -0.0957 E-score.
Next, CAAGCGCA: -0.0394 E-score; ATCAGAGG: 0.0181 E-score.
Next, ATCGTCGC: -0.0659 E-score; TCTGGACA: -0.0595 E-score; ATTATTGG: 0.106 E-score.
The same measure for AAGACCTT: -0.146 E-score; for TCCATGGA: -0.104 E-score; for CTAACGGC: -0.248 E-score.
As to GGCCGACC, the binding signal was -0.362 E-score.
Take CCACCACG: the binding signal was -0.193 E-score.
Next, GCTTTAGA: -0.024 E-score; GGGTACAA: 0.0205 E-score; CGATCAGA: -0.145 E-score.
Next, CATAAGAC: 0.00454 E-score; AGCTTACG: -0.0618 E-score.
The same measure for AAAGCTTG: -0.0903 E-score.
CTAGTTAC came in with a binding signal of 0.38 E-score.
Consider TTAAGAAA, for which the binding signal turned out to be 0.148 E-score.
The same measure for ATCAGCTC: -0.0803 E-score; for GATCGATC: 0.163 E-score; for CAAGGGTC: -0.151 E-score.
The same measure for AATTCAGG: -0.0589 E-score; for AGTGAGGC: -0.0807 E-score.
The same measure for GAATATAC: 0.293 E-score; for AGCTTATG: 0.00766 E-score.
For the sequence CACCACTA, the binding signal is 0.116 E-score.
Next, AAAAGTGG: 0.0303 E-score; ACGAGTGA: -0.0182 E-score; AGATAGCG: 0.31 E-score.
Next, GGTAGACA: 0.0947 E-score; AACCCAGC: -0.114 E-score.
Next, AGTCCCTC: -0.267 E-score; CGGGGCAA: -0.163 E-score.
With AACAAACT, the binding signal turned out to be 0.013 E-score.
Next, CATTCAAG: 0.0359 E-score; AAACGATA: 0.0851 E-score.
GTGAGTGA: the binding signal was -0.0284 E-score.
Next, GCGGGCAA: -0.136 E-score; TCCTAGCA: 0.0436 E-score; GAACTAAA: 0.21 E-score.
Next, CTCATCAG: 0.0759 E-score; AACGCGCG: -0.0781 E-score.
Next, CGAGACCG: -0.279 E-score; CGCAAGCA: -0.132 E-score.
As for CCCTAAAA, the binding signal is -0.0146 E-score.
As for ACCGACGC, the binding signal was -0.0844 E-score.
Turning to GATAGCCC, the binding signal is -0.244 E-score.
Next, CAATCGTG: -0.0616 E-score; GAAGCTTA: -0.0189 E-score; ATAGACGG: -0.156 E-score.
Regarding CAGAAACG, the binding signal is -0.0943 E-score.
Next, CGGGTAAA: -0.033 E-score; AAACTGCC: -0.0722 E-score.
Next, CATATACG: 0.21 E-score; AGATCCTG: 0.0839 E-score.
As to AAGACAGA, the binding signal is -0.0822 E-score.
With CCCGACAG, the binding signal was -0.223 E-score.
Next, TGGGAAAA: -0.0131 E-score; ACTCCTAT: 0.221 E-score; CCGACTCG: -0.163 E-score.
Next, CAATACCC: 0.0576 E-score; CTCAACGA: -0.0623 E-score; CGCACACG: -0.218 E-score.
On to CTATCTTA, for which the binding signal was 0.227 E-score.
The same measure for ACGCTAAA: -0.0082 E-score; for CGTCAAGA: -0.201 E-score; for CATTCTCA: 0.029 E-score.
Next, CGAGGACC: -0.0774 E-score; GAGGAACA: -0.114 E-score.
Next, AAGCCTTG: -0.29 E-score; GAAGACAC: -0.085 E-score.
For the sequence CAGGAACA, the binding signal is -0.101 E-score.
The same measure for ATATTGTC: 0.221 E-score; for ACCAACCA: -0.193 E-score; for ATGGAAAT: 0.0207 E-score.
As to AGCGCTGC, the binding signal was -0.144 E-score.
The same measure for ACGTTGCT: -0.0137 E-score; for CCTATAAA: 0.301 E-score.
The same measure for CTCCCTAC: -0.213 E-score.
The same measure for CGACAAAA: 0.068 E-score; for CATACCCA: 0.194 E-score.
GAAGCAAA yielded a binding signal of 0.014 E-score.
GAAAATAA: the binding signal came to 0.156 E-score.
The same measure for AAAAACAC: 0.14 E-score; for ATACGAGG: -0.157 E-score; for AAAGCTAC: 0.327 E-score.
CCAAGTTA had a binding signal of 0.115 E-score.
Next, ACCAAGCA: 0.0688 E-score.
In the case of GAGCCCTA, the binding signal was -0.171 E-score.
In the case of AAGTCCCT, the binding signal is -0.125 E-score.
The same measure for CTCCTTAA: -0.0937 E-score; for GACACGGA: -0.18 E-score.
Next, TACAAGTA: 0.272 E-score.
Next, TCACTAAA: 0.164 E-score.
As for CCGCGCCA, the binding signal was -0.208 E-score.
Next, ACCGCTAC: 0.158 E-score.
The same measure for CTGATGTA: 0.257 E-score; for TAAAACCA: -0.0458 E-score; for CCGCTTAA: 0.0128 E-score.
Next, AATATGAA: 0.166 E-score; AGAGTACG: 0.0174 E-score; CCTATTAA: 0.0709 E-score.
Sequence CGTAGATC yielded a binding signal of 0.225 E-score.
Next, AGCAAGAG: 0.0808 E-score; GCATAAAC: 0.0914 E-score.
Next, AGTAAATA: 0.425 E-score.
Next, CGTGCTAA: -0.00287 E-score; AAGCGTCG: -0.175 E-score.
On to AGGAAGTC, for which the binding signal was -0.28 E-score.
The same measure for AGGGGCAC: -0.363 E-score; for AGTGATCA: 0.0262 E-score; for GATTGAAA: 0.0414 E-score.
Next, ACGATTGG: -0.0603 E-score; CCTGATCC: -0.288 E-score.
Turning to TTAGCTAA, the binding signal was 0.263 E-score.
Next, GATGGGTA: -0.0187 E-score.
Next, ATTGATCA: 0.0331 E-score; CTAGGCAA: 0.0919 E-score; ACCCTCCC: -0.0987 E-score.
Next, CCTCAGTA: -0.0305 E-score.
Take GGCACGCC: the binding signal is -0.295 E-score.
With CACAAGAA, the binding signal was -0.0545 E-score.
AGTGGTAT had a binding signal of 0.313 E-score.
Regarding AATGAATC, the binding signal is -0.0762 E-score.
Next, AGGACGAA: -0.246 E-score.
AGCGACTA: the binding signal was -0.0392 E-score.
The sequence AATTAGGT came in with a binding signal of 0.273 E-score.
The same measure for CTTACGCC: -0.00614 E-score; for GGATAGAC: -0.182 E-score; for CACAACCA: -0.0806 E-score.
Next, CCCAATCG: -0.233 E-score; GAGAGACA: -0.104 E-score; CGACTAAA: 0.00284 E-score.
Next, AATGCGGA: -0.107 E-score.
In the case of CCCCTGAA, the binding signal was -0.248 E-score.
Next, CTTGGATC: -0.153 E-score.
The same measure for AACTCCAG: 0.0734 E-score; for GCCCTGTA: -0.192 E-score.
Next, ATAGTTTC: 0.292 E-score; CTGTTAAG: -0.000113 E-score; CTTCGTAA: 0.000147 E-score.
As for CACGTCTC, the binding signal was -0.00409 E-score.
The same measure for AATTCTGA: 0.173 E-score; for CCTACTCA: 0.0753 E-score.
